According to PMC8568969:
These are yes or no findings as the source states them, for the method shown. For part of these data: In cells and extracts the contact can be indirect. Some binding calls cover weakened binding; strength is not graded here. Values belong to the substance of their own block, whether it stands above or below them.

Sequences of proteins named here, by UniProt entry; tags and fusion partners are left off. A change or cut given only in a name is not applied to a line headed by its entry. Residues count along the entry.
UniProt Q9BUA3: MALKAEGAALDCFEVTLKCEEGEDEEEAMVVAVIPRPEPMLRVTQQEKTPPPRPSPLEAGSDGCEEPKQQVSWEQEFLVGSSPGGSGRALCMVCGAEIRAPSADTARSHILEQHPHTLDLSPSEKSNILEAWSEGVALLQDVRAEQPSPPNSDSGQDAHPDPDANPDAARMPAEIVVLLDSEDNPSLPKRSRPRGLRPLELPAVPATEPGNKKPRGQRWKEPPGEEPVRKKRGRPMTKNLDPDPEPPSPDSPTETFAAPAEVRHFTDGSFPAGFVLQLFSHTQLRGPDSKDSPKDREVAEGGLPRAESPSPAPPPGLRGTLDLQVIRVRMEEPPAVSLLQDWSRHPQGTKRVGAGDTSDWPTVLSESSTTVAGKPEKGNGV
GFP-SPINDOC 115–165aa: residues 115-165 of Q9BUA3
UniProt P09874: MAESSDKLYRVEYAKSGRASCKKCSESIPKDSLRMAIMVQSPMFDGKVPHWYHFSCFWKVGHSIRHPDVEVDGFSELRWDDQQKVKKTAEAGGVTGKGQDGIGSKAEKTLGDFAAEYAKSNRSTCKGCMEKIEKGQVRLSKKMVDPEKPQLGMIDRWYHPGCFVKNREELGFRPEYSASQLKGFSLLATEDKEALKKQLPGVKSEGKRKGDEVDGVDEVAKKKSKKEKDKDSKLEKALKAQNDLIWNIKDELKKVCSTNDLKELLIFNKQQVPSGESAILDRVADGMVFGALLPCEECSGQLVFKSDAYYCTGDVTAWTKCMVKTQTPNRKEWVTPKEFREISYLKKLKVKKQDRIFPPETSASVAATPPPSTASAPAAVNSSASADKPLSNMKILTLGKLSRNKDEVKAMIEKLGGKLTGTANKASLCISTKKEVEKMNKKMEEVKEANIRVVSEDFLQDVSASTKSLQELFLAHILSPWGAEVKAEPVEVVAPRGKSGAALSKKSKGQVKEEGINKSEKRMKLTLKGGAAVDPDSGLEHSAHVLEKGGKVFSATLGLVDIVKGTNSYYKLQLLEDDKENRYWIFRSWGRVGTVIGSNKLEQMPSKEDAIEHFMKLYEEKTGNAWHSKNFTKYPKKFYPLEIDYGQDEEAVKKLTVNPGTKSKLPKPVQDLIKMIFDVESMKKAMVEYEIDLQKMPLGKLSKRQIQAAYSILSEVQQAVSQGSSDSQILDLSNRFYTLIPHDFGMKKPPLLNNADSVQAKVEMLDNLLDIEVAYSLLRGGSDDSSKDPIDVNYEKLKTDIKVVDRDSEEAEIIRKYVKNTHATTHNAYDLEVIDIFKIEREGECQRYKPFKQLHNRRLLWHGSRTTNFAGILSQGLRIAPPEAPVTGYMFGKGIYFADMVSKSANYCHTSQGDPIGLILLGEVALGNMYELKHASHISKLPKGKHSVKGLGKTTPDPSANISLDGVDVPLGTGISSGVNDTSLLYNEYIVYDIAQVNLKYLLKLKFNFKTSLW
UniProt Q9UGN5: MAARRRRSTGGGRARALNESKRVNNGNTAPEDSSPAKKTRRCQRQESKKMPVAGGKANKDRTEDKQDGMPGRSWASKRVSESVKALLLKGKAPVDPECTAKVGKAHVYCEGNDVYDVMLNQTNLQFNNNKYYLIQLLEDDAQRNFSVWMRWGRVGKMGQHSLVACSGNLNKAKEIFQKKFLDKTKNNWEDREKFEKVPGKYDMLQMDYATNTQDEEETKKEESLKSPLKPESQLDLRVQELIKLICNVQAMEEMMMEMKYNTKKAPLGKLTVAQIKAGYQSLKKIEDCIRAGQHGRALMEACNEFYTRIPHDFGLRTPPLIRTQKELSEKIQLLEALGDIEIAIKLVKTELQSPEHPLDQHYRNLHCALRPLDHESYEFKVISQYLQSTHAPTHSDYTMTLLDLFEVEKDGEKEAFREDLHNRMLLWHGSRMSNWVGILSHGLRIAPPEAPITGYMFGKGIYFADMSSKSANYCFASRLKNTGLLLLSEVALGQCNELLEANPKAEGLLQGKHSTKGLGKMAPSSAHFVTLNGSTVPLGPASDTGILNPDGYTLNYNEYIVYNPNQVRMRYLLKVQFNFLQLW
UniProt Q9Y657: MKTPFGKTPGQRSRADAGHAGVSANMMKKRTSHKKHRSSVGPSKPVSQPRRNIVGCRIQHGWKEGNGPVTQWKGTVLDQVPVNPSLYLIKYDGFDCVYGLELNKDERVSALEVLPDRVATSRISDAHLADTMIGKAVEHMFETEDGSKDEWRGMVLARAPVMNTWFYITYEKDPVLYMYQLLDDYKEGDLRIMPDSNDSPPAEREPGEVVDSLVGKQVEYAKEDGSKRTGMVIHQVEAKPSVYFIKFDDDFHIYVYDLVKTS

What was measured:
GFP-SPINDOC 115–165aa [1] = molecular target: GFP-SPINDOC 115–165aa (UniProt Q9BUA3); assay: co-IP; anti-GFP or anti-Flag IP from lysates of transfected cells (48 h); mild lysis buffer (20 mM Tris-HCl pH 8.0, 150 mM NaCl, 1 mM EDTA, 0.5% Nonidet P-40), protein A/G resin, 4 °C, Western blot
GFP-SPINDOC [2] = molecular target: GFP-SPINDOC (UniProt Q9BUA3); assay: as above
GFP-SPINDOC 115–165aa [3] = molecular target: GFP-SPINDOC 115–165aa (UniProt Q9BUA3); assay: co-IP; anti-GFP IP of co-transfected GFP-SPINDOC 115–165aa and Flag-PARP1-DBD, in the presence or absence of DNase I and ethidium bromide
Flag-PARP1 = Flag-PARP1 (UniProt P09874); assay: co-IP; anti-GFP or anti-Flag IP from lysates of transfected cells (48 h); mild lysis buffer (20 mM Tris-HCl pH 8.0, 150 mM NaCl, 1 mM EDTA, 0.5% Nonidet P-40), protein A/G resin, 4 °C, Western blot
[4] = molecular target: PARP1 (endogenous) (human (endogenous in HEK293T)) (UniProt P09874); assay: co-IP; reciprocal IPs for GFP-SPINDOC and PARP1, cells with or without Etoposide treatment
GFP-SPINDOC [5] = molecular target: GFP-SPINDOC (UniProt Q9BUA3); assay: as above
[6] = molecular target: SPINDOC (endogenous) (human (endogenous in HEK293T)) (UniProt Q9BUA3); assay: co-sedimentation; 15–35% glycerol gradient of lysates of HEK293T cells or of HEK293T cells transfected with GFP-SPINDOC, 4 °C, 18 h, 26 fractions analysed by Western blot
GFP-SPINDOC [7] = molecular target: GFP-SPINDOC (UniProt Q9BUA3); assay: as above
GST-SPINDOC = GST-SPINDOC (UniProt Q9BUA3); assay: pull-down; in vitro GST pulldown: purified GST or GST-SPINDOC incubated with recombinant PARP1, in the presence or absence of sheared DNA; both purified

Substance: GFP-SPINDOC (from UniProt Q9BUA3 1-381)
binding (Flag-PARP1): binds | binding [4]: binds

Substance: PARP2 (from UniProt Q9UGN5 1-583)
binding (GFP-SPINDOC [2]): no binding

Substance: SPIN1 (from UniProt Q9Y657 1-262)
binding (Flag-PARP1): no binding

Now from value to substance:

binding (GFP-SPINDOC 115–165aa [1]): no binding | binding (GFP-SPINDOC [2]): binds
Substance: Flag-PARP1 (from UniProt P09874 1-1014)

binding (GFP-SPINDOC 115–165aa [3]): binds | binding (GFP-SPINDOC [2]): binds
Substance: Flag-PARP1-DBD (from UniProt P09874 1-373) (domain or fragment)

binding (GFP-SPINDOC [5]): binds | binding [6]: binds | binding (GFP-SPINDOC [7]): binds
Substance: PARP1 (endogenous) (from UniProt P09874 1-1014)

binding (GST-SPINDOC): binds
Substance: recombinant PARP1 (from UniProt P09874 1-1014) (enzyme)
